# Values quoted from earlier work in publication PMC11006913.
# Residue numbers refer to the chain shown, from its start. The list shows a part of the results.
# Key:
# Conditions in all cases: PBM; conditions not shown; double strand, one strand shown; scale: upbm affinity estimate (log intensity, higher = more binding, comparable within an allelic series)
# [1] = biological target: ARX (Homo sapiens) (UniProt Q96QS3)
# [2] = biological target: ARX L343Q (Homo sapiens) (UniProt Q96QS3)
# [3] = biological target: ARX P353L (Homo sapiens) (UniProt Q96QS3)
# [4] = biological target: ARX P353R (Homo sapiens) (UniProt Q96QS3)
# [5] = biological target: ARX R332H (Homo sapiens) (UniProt Q96QS3)
# [6] = biological target: ARX T333N (Homo sapiens) (UniProt Q96QS3)
# [7] = biological target: T1, HESX1 E149K (Homo sapiens) (UniProt Q9UBX0)
# T1 sequence: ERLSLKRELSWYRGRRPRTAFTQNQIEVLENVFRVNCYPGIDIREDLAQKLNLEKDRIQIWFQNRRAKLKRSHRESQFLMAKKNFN
# [8] = biological target: T2, HESX1 N125S (Homo sapiens) (UniProt Q9UBX0)
# T2 sequence: T1 sequence with N31S, K55E
# [9] = biological target: T3, HESX1 R160C (Homo sapiens) (UniProt Q9UBX0)
# T3 sequence: T1 sequence with K55E, R66C
# [10] = biological target: HOXD13 I297V (Homo sapiens) (UniProt P35453)
# [11] = biological target: HOXD13 I322L (Homo sapiens) (UniProt P35453)
# [12] = biological target: HOXD13 N298S (Homo sapiens) (UniProt P35453)
# [13] = biological target: HOXD13 Q325K (Homo sapiens) (UniProt P35453)
# [14] = biological target: HOXD13 Q325R (Homo sapiens) (UniProt P35453)
# [15] = biological target: HOXD13 R306W (Homo sapiens) (UniProt P35453)
# [16] = biological target: HOXD13 S316C (Homo sapiens) (UniProt P35453)
# [17] = biological target: ISX (Homo sapiens) (UniProt Q2M1V0)
# [18] = biological target: ISX R83Q (Homo sapiens) (UniProt Q2M1V0)
# [19] = biological target: PROP1 R112Q (Homo sapiens) (UniProt O75360)
# [20] = biological target: PROP1 R99Q (Homo sapiens) (UniProt O75360)
Sequence,binding signal [1],binding signal [2],binding signal [3],binding signal [4],binding signal [5],binding signal [6],binding signal [7],binding signal [8],binding signal [9],binding signal [10],binding signal [11],binding signal [12],binding signal [13],binding signal [14],binding signal [15],binding signal [16],binding signal [17],binding signal [18],binding signal [19],binding signal [20]
CCACGCGC [8-mer CCACGCGC],10.2,10.1,10.2,10.1,10.1,10.2,–,–,–,–,–,–,–,–,–,–,–,–,–,–
AGGGGCTC [8-mer AGGGGCTC],10.2,10.2,10.2,10.1,10.2,10.2,–,–,–,–,–,–,–,–,–,–,–,–,–,–
GAGCCCCC [8-mer GAGCCCCC],10.1,9.96,10.2,9.95,9.91,10.2,–,–,–,–,–,–,–,–,–,–,–,–,–,–
ATTAATTG [8-mer ATTAATTG],13,11,12.7,10.9,11.2,12.3,11.8,12.6,10.4,12.3,11.2,12.4,11.1,11.5,11.5,12.1,15.4,14.8,12.9,12.3
CAATTATG [8-mer CAATTATG],12.8,11,12.5,10.9,11.1,12,11.8,12.1,10.5,11.7,10.9,11.8,10.8,11.2,10.9,11.4,15.1,13.8,12.8,12.4
